The full ranking holds about 110,000 compounds; the median of “z-score” is about -0.1, and the highest 2% start at about 2. The list shows a part of the results. The source made the active and inactive calls.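 Rule for the calls: active = z-score in the third read window above 3 or below -3; inactive = the rest.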

This assay concerns the target Metabotropic glutamate receptor 8 (Rattus norvegicus) (UniProt P70579). Nature of the assay: rat mGluR8 modulators via GIRK flux, primary screen, cell-based, thallium flux, HTS (AID 488969). As to conditions: HEK293 rat mGluR8, GIRK (G protein-gated inwardly rectifying potassium channel) thallium flux, FluoZin2; at 10 µM; stronger effect = higher value; submaximal glutamate (EC20) added with thallium.
Sequence of UniProt P70579 (P70579 whole entry, looked up): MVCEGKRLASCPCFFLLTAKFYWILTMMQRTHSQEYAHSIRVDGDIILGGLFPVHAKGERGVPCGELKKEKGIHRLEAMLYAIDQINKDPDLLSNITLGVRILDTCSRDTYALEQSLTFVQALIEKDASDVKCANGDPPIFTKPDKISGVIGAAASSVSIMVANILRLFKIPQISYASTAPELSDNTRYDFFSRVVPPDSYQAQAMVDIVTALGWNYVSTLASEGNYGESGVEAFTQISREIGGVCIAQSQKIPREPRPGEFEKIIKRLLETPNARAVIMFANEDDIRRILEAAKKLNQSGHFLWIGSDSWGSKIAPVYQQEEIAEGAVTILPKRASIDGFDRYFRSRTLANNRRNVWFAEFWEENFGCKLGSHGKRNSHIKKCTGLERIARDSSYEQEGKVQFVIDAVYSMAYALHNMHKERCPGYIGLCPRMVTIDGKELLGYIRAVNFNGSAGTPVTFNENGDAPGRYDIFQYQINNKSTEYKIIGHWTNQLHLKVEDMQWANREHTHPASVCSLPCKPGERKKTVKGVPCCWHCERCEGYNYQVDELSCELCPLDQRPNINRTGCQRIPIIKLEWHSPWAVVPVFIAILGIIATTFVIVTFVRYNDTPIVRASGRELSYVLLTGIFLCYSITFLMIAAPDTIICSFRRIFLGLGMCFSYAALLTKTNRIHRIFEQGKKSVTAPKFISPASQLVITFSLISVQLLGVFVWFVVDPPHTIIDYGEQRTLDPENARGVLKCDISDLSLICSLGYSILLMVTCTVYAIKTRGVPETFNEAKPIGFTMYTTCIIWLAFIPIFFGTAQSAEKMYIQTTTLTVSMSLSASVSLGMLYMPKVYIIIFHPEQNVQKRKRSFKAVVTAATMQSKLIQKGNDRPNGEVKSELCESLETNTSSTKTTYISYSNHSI
Compound `Cc1cccc2c1NC(C)CC2C` (stereo unspecified) registered a z-score of -0.214.
With `CCN1CCCC1CNC1=NCCCCC1` (stereo unspecified) the figure was -0.206.
Compound `CC(=O)Oc1ccc2c(c1)Oc1cc(OC(C)=O)ccc1C21OC(=O)c2ccccc21` showed a z-score of -0.947.
With `Cc1ccc2c(CC(=O)OCc3csc(C)n3)coc2c1` the figure was 0.595; with `Cc1cc(Cl)c(S(=O)(=O)NC(C(=O)O)c2ccccc2)cc1OCC(N)=O` (stereo unspecified), -1.26.
The value for `CCOC(=O)c1c(C)oc2c(CN3CCN(C)CC3)c(Br)c(OC)c(O)c12` was -0.824.
The value for `O=C(Nc1cccc2nsnc12)C1CC(=O)N(c2ccccc2)C1` (stereo unspecified) was 0.207; that for `CC1CCC(n2c(=S)[nH]c3ccccc3c2=O)CC1` (stereo unspecified) was active: 8.55.
On to `O=C(COc1ccc(Cl)cc1)Nc1ccccc1N1CCOCC1`, for which the z-score was found to be 0.0635.
The value for `CC1CCN(c2nnc(-c3cccs3)c3ccccc23)CC1` was -0.286.
With `O=C(COC(=O)CCC(=O)c1cccs1)Nc1ncc(Cl)cc1Cl` the figure was -0.28; with `C/C(=N\NC(=O)c1ccc(Cl)c(Cl)c1)c1cccc(NC(=O)C(C)C)c1`, 0.0284; with `CCN(CC)c1ccc(C=Nc2ccc(N(C)C)cc2)c(O)c1`, 0.0964.
With `O=C(/C=C/c1ccccc1Cl)NCCc1ccc(F)cc1` the figure was 0.976.
As for `CN(CCCC(=O)Nc1nccs1)S(=O)(=O)c1ccc(Cl)cc1`, the z-score amounted to 1.43.
The value for `CC(=O)C(Cc1cnc(Cl)s1)(Cc1cnc(Cl)s1)C(C)=O` was 0.0841; that for `COc1cccc(NC(=O)COc2c(F)c(F)c(C(F)(F)F)c(F)c2F)c1` was 1.2.
The value for `COc1cc(OC)cc(C(=O)Oc2ccc(/C=N/Nc3nc4ccccc4s3)cc2OC)c1` was -0.292; that for `CC(=O)NC1(c2nnnn2CCOC(=O)Nc2ccc(Cl)cc2)CCCCC1` was 0.0804.
For `CC(C)C(=O)Nc1ccc(C(=O)NN2C(=O)c3ccccc3C2=O)cc1`, the z-score was 0.139.
With `Cc1cccc(-c2noc(CN(C)S(=O)(=O)c3cc(Cl)ccc3Cl)n2)c1` the figure was 0.188.
`Cc1ccc(C(=O)N/C(=C\c2ccco2)C(=O)NCC2CCCO2)cc1C` (stereo unspecified) came in with a z-score of 0.00669.
With `O=C(CSc1nncs1)NCc1ccc2c(c1)OCO2`, the z-score is -0.652.
The value for `CC(=O)Nc1ccc(S(=O)(=O)NC(CC(=O)O)c2ccc(OC(C)C)cc2)cc1` (stereo unspecified) was -0.173.
With `CC(C)COc1nc2ccccc2c(=O)n1OCC(=O)O` the figure was -0.148; with `CC(C)(C)NC(=O)c1nc2ccccc2s1`, 0.283.
`CC(OC(=O)c1cccc(S(=O)(=O)Nc2ccccc2F)c1)C(=O)NCc1ccc2c(c1)OCO2` (stereo unspecified): the z-score worked out at 0.274.
With `COc1ccc(S(=O)(=O)Cc2ccc(C(=O)N3CCN(C4CCCCC4)CC3)o2)cc1` the figure was -0.503; with `N#C/C(=C\C=C\c1ccccc1[N+](=O)[O-])c1nc(-c2ccc3c(c2)OCO3)cs1`, 0.0159.
The value for `COc1cc(/C=N/NC(=O)c2cccnc2)ccc1OCC(=O)Nc1ccc(C)cc1` was -0.0754; that for `CCCCC(=O)Nc1ccc(Br)cn1` was 0.43; that for `CC1(C)Nc2ccccc2N(CCC(=O)N2CCOCC2)C1=O` was 1.22.
For the compound `COc1ccc2nc(SCC(=O)Nc3ccccc3C)[nH]c2c1`, the z-score was -0.112.
The value for `Clc1cccc(Cl)c1CSc1nnc2ccccn12` was 0.157; that for `CCc1c(C)sc2nc(SCC(=O)Nc3cc(C)on3)n(CCOC)c(=O)c12` was 0.0832; that for `C/C(=N\NC(=O)c1c(Br)c(C)nn1C)c1ccc(NC(=O)C(C)Oc2ccc(Cl)cc2C)cc1` (stereo unspecified) was 0.0196.
With `O=C(CSc1nnc(-c2cccs2)n1-c1ccccc1)N1CCCc2ccccc21` the figure was -0.111.
With `COc1ccc(N2CCN(C(=O)CSc3nnc4n3C(C)(C)Cc3ccccc3-4)CC2)cc1` the figure was -0.642.
As to `CCNc1nc2[nH]c(=O)c3c(c2s1)OC(N)=C(C#N)C3c1ccc(C)cc1` (stereo unspecified), the z-score was -0.444.
The value for `CCCCN(CC)C(=O)Cc1ccc(Br)cc1` was -0.261; that for `CN1C(=O)CC(N2CCC(c3nc4ccccc4s3)CC2)C1=O` (stereo unspecified) was 0.317; that for `CN(C)c1nc(N)nc(-c2nc3ccccc3s2)n1` was 0.172.
With `C=CCn1c(COc2cccc(C)c2)nnc1SCC(=O)NC(=O)NCc1ccco1` the figure was 0.113; with `Cc1ccc2c(c1)C(c1ccccc1)N(C(=O)c1ccc(S(=O)(=O)N3CCOCC3)cc1)CC(=O)N2` (stereo unspecified), -0.129.
The value for `Cc1ccccc1NC(=O)/C(C#N)=C\c1ccsc1` was -0.125; that for `CC(C)C(NC(=O)c1ccc(Cl)cc1)C(=O)NC1=NCCS1` (stereo unspecified) was 0.815.
`COCc1nnc(NS(=O)(=O)c2ccccc2)s1`: the z-score is -0.0971.
With `O=C(CN1C(=O)C2CC=CCC2C1=O)Nc1nnc(SCc2c(Cl)cccc2Cl)s1` (stereo unspecified) the figure was -0.215.
Regarding `CC(=O)Nc1ccc(Sc2ncccc2C(=O)Nc2ccc(F)cc2)cn1`, the z-score was 0.448.
The value for `COc1ccc(OC)c2c1C(=O)c1ccccc1C2=O` was -0.311.
With `CC12CC(c3ccccc3O1)N(C(=O)c1ccco1)C(=S)N2c1ccc(F)cc1` (stereo unspecified) the figure was -0.812; with `CCOC(=O)c1nn(-c2ccc(OC)cc2)c(=O)c2c(N)scc12`, -0.263; with `COc1ccc(CSc2nnc(C)n2N)cc1Br`, 0.211.
The value for `O=c1c2ccc([N+](=O)[O-])c3cccc(c32)c2nc3ccccc3n12` was 0.692; that for `CCOC(=O)Cc1csc(NC(=O)CCCCCN2C(=O)c3ccccc3C2=O)n1` was -0.227.
Regarding `CCOC(=O)C1CCCN(Cc2c(F)cccc2Cl)C1` (stereo unspecified), the z-score amounted to 0.0588.
With `O=C(Nc1ccc2nc(-c3ccco3)[nH]c2c1)c1cccs1` the figure was -0.636; with `c1ccc(-c2nn3c(Cn4cnc5ccccc54)nnc3s2)cc1`, -0.821.
The compound `CCCCS(=O)(=O)Nc1ccc(Cc2ccncc2)cc1` showed a z-score of 0.0131.
The value for `C/C(Cl)=C/Cn1c(N2CCCC2)nc2c1c(=O)n(C)c(=O)n2C` was -0.4; that for `CCN1C(=O)CC(N2CCOCC2)C1=O` (stereo unspecified) was -0.403; that for `C/C(=N\NC(=O)c1cccc(S(=O)(=O)Nc2ccccc2Cl)c1)c1ccc(-n2ccnc2)cc1` was -0.494.
For the compound `CCOC(=O)c1ccc(NC(=O)N(CC)CC)cc1`, the z-score came out at 0.549.
Take `CSc1cc(C)n(-c2ccccc2C)c(=S)c1C(C)=O`: the z-score was -0.00956.
Regarding `COCC(C)NC(=O)CSc1nc(-c2ccccc2)c(-c2ccccc2)o1` (stereo unspecified), the z-score is -0.279.
With `Oc1c(C(c2cccs2)N2CCN(c3ccccc3)CC2)ccc2cccnc12` (stereo unspecified) the figure was 0.313.
With `Cc1cc(C(=O)OCC(=O)NC(C)(C)C)c2ccccc2n1` the figure was -0.284; with `O=C1OCC2=C1C(c1ccc(F)cc1)Sc1ccccc1N2` (stereo unspecified), -0.263.
With `O=C(c1ccccc1Oc1ccccc1)N1CCN(c2ccccc2F)CC1` the figure was 0.234; with `COCCNC(=O)c1cc(-c2cccs2)on1`, 1.01; with `CCOc1ccc(CNC(=S)N/N=C\c2ccc([N+](=O)[O-])cc2)cc1`, -0.0226.
